Assay results: PubChem BioAssay AID485364 (National Center for Advancing Translational Sciences (NCATS), 2010)
Out of some 360,000 compounds screened, about 11,000 (3.1%) were called active. This list was built around the results that the source calls inconclusive (neither active nor inactive); the mix of calls is not that of the screen. Calls come from the whole dose curve; as a rule, active = well fitted inhibition curve with a large enough effect; inconclusive = small, poorly fitted or top-dose-only effect; inactive = no such curve, though single readings can be large or run the other way. No potency is given beside an inconclusive call; the fits are too rough.

molecular target: Schistosoma mansoni thioredoxin glutathione reductase (TGR) (UniProt Q962Y6); assay: qHTS Assay for the Inhibitors of Schistosoma Mansoni Peroxiredoxins; conditions: purified TGR, DTNB reduction, TNB absorbance 405 nm; activity change, negative = inhibition: at 114 µM (top of the series) unless noted; note: nearly all actives have a fitted effect of over 60% in size
Outline: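 TGR 20 nM + NADPH 100 uM (dispensed conc.), cpd preinc 15 min RT; start with NADPH (500 uM addition) then DTNB (15 mM addition). Kinetic TNB absorbance, 405 nm filter. Four-parameter Hill fit across titration.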
% is set by controls: 0 for no effect and ±100 for the full control effect; potency is the fitted concentration of half-maximal effect; tags give direction and shape of the fitted curve.

| SMILES | activity change, negative = inhibition | Potency |
| --- | --- | --- |
| CCc1cccc(C)c1NS(=O)(=O)c1c(C(=O)N2CCC(C)CC2)c(C)n(C)c1C | inactive: -0.336% |  |
| CC1(C)C(=O)NCCN1C(=O)CC1C(=O)NCCN1CC(c1ccccc1)c1ccccc1 (stereo not drawn) |  | inconclusive [inhibitor, partial curve] |
| Cc1cc(N2CCOCC2)ccc1/C=C\[N+](=O)[O-] |  | active: 20 µM |
| C#CCOCCOCCOCCNc1nc(N2CCN(C(=O)[C@H]([C@@H](C)CC)n3cc([C@@H](N)CO)nn3)CC2)nc(N2CCN(C(=O)[C@H](Cc3cc4ccccc4[nH]3)n3cc([C@@H](N)C(C)CC)nn3)CC2)n1 (stereo partly drawn) |  | inconclusive [inhibitor, full curve] |
| O=C(COC(=O)Cc1ccccc1[N+](=O)[O-])NCc1ccc(Cl)cc1 |  | inconclusive [inhibitor, partial curve] |
| CCOc1ccc(N2C(=O)CC(SCc3nc4ccccc4[nH]3)C2=O)cc1 (stereo not drawn) |  | active: 44.7 µM |
| COc1ccc(Cn2c(C(=O)O)c(CNCc3ccccc3F)c3ccc(OC)cc32)cc1 | inactive: -1.7% |  |
| COCCN(C(=O)Nc1ccc(F)cc1F)c1nc2ccccc2s1 | inactive: 0% |  |
| C=CCOc1ccc(C2c3c(oc4ccccc4c3=O)C(=O)N2CCCN2CCOCC2)cc1 (stereo not drawn) |  | inconclusive [inhibitor, partial curve] |
| CC(C)C(C(=O)O)N1CCS(=O)(=O)CC1 (stereo not drawn) | inactive: 1.73% |  |
| Cc1c(NC(=O)c2ccc(-c3cccc([N+](=O)[O-])c3)o2)cccc1-c1nc2cc(Cl)ccc2o1 |  | active: 35.5 µM |
| CC(=O)c1c(C)[nH]c(C(=O)Nc2ccc(C)c(S(=O)(=O)Nc3ccc(C)cc3C)c2)c1C | inactive: -13.4% |  |
| C#CC[N+](C)(C)CCCCCCCCCCCC | inactive: 0.447% |  |
| Cc1ccc(S(=O)(=O)Cc2ccc(C(=O)NC3CCCC3)o2)cc1 |  | inconclusive [inhibitor, partial curve] |
| COc1ccccc1-n1c(-c2cc(-c3ccco3)[nH]n2)n[nH]c1=S |  | inconclusive [inhibitor, partial curve] |
| O=C(CNC(=O)c1ccc(F)cc1)OCc1cc(=O)n2nc(C3CC3)sc2n1 | inactive: -6.51% |  |
| N#CCC(=O)Nn1c(=S)[nH]c2ccccc2c1=O |  | inconclusive [inhibitor, single point] |
| C=CCN1CC(O)=C(c2ccccc2)C1=N |  | inconclusive [inhibitor, single point] |
| CCCc1cc(-c2[nH]ncc2-c2ccc(C(=O)OCC)o2)c(O)cc1O |  | inconclusive [inhibitor, full curve, poor fit] |
| CN1C(C(=O)NCc2ccco2)CC2Cn3c(nc4cc(Cl)c(Cl)cc43)C21 (stereo not drawn) | inactive: -26.6% |  |
| Cc1ccc(Nc2nc(CSc3nnnn3C)cs2)cc1 |  | inconclusive [inhibitor, partial curve] |
| CC1=Nc2cc(C(=O)NCc3ccccc3Cl)ccc2Sc2c(C)ccc(C)c21 | inactive: -4.34% |  |
| CCCn1c(=O)n(-c2ccccc2Cl)c(=O)c2sc3ccccc3c21 |  | inconclusive [inhibitor, single point] |
| COc1ccc(NS(=O)(=O)c2cccc(C(=O)NCC(c3ccco3)N(C)C)c2)cc1 (stereo not drawn) |  | inconclusive [inhibitor, partial curve] |
| CCC(=O)NC(c1ccco1)c1cc(Cl)c2ccccc2c1O (stereo not drawn) |  | inconclusive [inhibitor, partial curve] |

| SMILES | activity change, negative = inhibition | Potency |
| --- | --- | --- |
| Cn1cnc([N+](=O)[O-])c1Oc1cccc2ccccc12 |  | active: 25.1 µM |
| O=C(CCl)NNc1nc(-c2ccccc2)c2cc(Cl)ccc2n1 |  | inconclusive [inhibitor, full curve] |
| O=C(Nc1nc2ccccc2[nH]1)c1cc(F)cc(F)c1 | inactive: 5.76% |  |
| Nc1c(N(Cc2ccco2)C(=O)c2cccc(Cl)c2)c(=O)[nH]c(=O)n1Cc1ccccc1 |  | active: 39.8 µM |
| CCOc1ccc(N(CC(=O)NCc2ccco2)S(C)(=O)=O)cc1 |  | active: 50.1 µM |
| C(=C\n1nnc2ccccc21)/c1ccc[nH]1 |  | active: 25.1 µM |
| O=C(O)CC1(CC(=O)N2CCOCC2)CCCC1 | inactive: -12.6% |  |
| COc1ccccc1N1CCN(/N=C/c2cc(OC)c(OC(C)=O)c(OC)c2)CC1 | inactive: -9.14% |  |
| COc1ccc(CN2CCCN(S(=O)(=O)c3ccc(Br)cc3)CC2)cc1 |  | inconclusive [inhibitor, partial curve] |
| Oc1ccccc1N=Cc1sc2ccccc2c1Cl | inactive: -12.7% |  |
| O=C(Nc1ccc(N2CCN(C(=O)c3ccccc3)CC2)cc1)c1ccc([N+](=O)[O-])o1 |  | inconclusive [inhibitor, partial curve] |
| Cc1cc(/C=C2/NC(=O)NC2=O)c(C)n1C |  | active: 14.1 µM |
| CCOC(=O)c1ccc(N2C(=O)c3n[nH]c(-c4ccco4)c3C2c2ccc(O)cc2)cc1 (stereo not drawn) |  | inconclusive [inhibitor, partial curve] |
| CCN1C(=C(C#N)C#N)C=Cc2ccccc21 |  | inconclusive [inhibitor, single point] |
| S=C(NCc1ccncc1)Nc1ccc(Cl)cc1 |  | inconclusive [inhibitor, partial curve] |
| Cc1ccc(CN2C(=O)N/C(=C\c3cccn3-c3cccc(C(=O)O)c3)C2=O)cc1 |  | active: 35.5 µM |
| CC(=O)c1ccc2noc(-c3cccc(F)c3)c2c1 |  | inconclusive [inhibitor, partial curve, poor fit] |
| Brc1ccc(CSc2nnc(-c3ccco3)o2)cc1 | inactive: -1.93% |  |
| CC(NC(=S)Nc1ccc(S(N)(=O)=O)cc1)c1ccc2c(c1)OCO2 (stereo not drawn) |  | inconclusive [inhibitor, partial curve] |
| CN(C)S(=O)(=O)N1CCc2ccccc21 |  | inconclusive [inhibitor, full curve] |
| CCOC(=O)C1(Cc2ccccc2C)CCCN(C(=O)c2ccccn2)C1 (stereo not drawn) |  | inconclusive [inhibitor, partial curve] |
| COc1ccc(Cl)cc1-n1c(/C=C/c2cccc3ccccc23)nc2ccccc2c1=O | inactive: 6.52% |  |
| O=C(CSc1nnc(-c2cccnc2)n1Cc1ccco1)c1ccc2ccccc2c1 |  | active: 22.4 µM |
| Cc1nc2cc([N+](=O)[O-])ccc2c(=O)n1-c1ccc(Br)cc1 |  | inconclusive [inhibitor, single point] |
| COc1ccc(OC)c(C2C3=C(N=C4SCC(=O)N42)c2ccccc2CC3)c1 (stereo not drawn) |  | inconclusive [inhibitor, partial curve] |

| SMILES | activity change, negative = inhibition | Potency |
| --- | --- | --- |
| O=C(Nc1cccc(Cl)c1)c1cccc(Oc2ccc([N+](=O)[O-])cc2Cl)c1 | inactive: -8.25% |  |
| O=C(c1cccc(Cl)c1)N1CCN(CCc2ccncc2)CC1 |  | inconclusive [inhibitor, partial curve] |
| COC(=O)CNC(=O)c1ccc(NS(=O)(=O)c2cc([N+](=O)[O-])ccc2Cl)cc1 |  | inconclusive [inhibitor, partial curve] |
| CCOc1ccc(NC(=O)c2nn(C)c3c2CS(=O)(=O)c2ccccc2-3)cc1 | inactive: -1.38% |  |
| O=c1[nH]n(-c2ccccc2)c(=O)c(Cl)c1Cl |  | inconclusive [inhibitor, partial curve] |
| COCCNCC1C(Oc2ccc(Cl)cc2)C(=O)N1c1ccccc1C (stereo not drawn) | inactive: 3.96% |  |
| COc1cc(-c2[nH]ncc2CN2CCCC2c2nonc2C)cc(OC)c1OC (stereo not drawn) |  | inconclusive [inhibitor, single point] |
| CC(C)(C)NC(=S)N1CCC(C(=O)c2ccc(F)cc2)CC1 |  | inconclusive [inhibitor, partial curve] |
| Cc1n[nH]c(=O)c2c(NC(=O)CSc3nnc(C4CC4)n3C)oc(C)c12 |  | inconclusive [inhibitor, partial curve] |
| CCn1c(=O)c(C(=O)Nc2ccc(C(C)=O)cc2)nc2ccccc21 | inactive: -4.83% |  |
| Cc1ccc2cc(C3CC(c4ccco4)=NN3C(=O)CCCC(=O)O)c(Cl)nc2c1 (stereo not drawn) |  | inconclusive [inhibitor, partial curve] |
| O=C(CSc1nnc(Cc2ccccc2)o1)NCc1ccco1 |  | active: 44.7 µM |
| N#CC(C#N)=C1C=CC=CN1/C(=C\c1ccccc1Cl)C(=O)c1ccccc1 |  | active: 0.282 µM |
| CCOC(=O)C1=C(Cn2cnc3ccccc32)NC(=O)NC1c1cc(C)ccc1C (stereo not drawn) |  | inconclusive [inhibitor, single point] |
| Cc1nn(-c2ccccc2)c2c1C(c1cccnc1)N1C=C(S(=O)(=O)N3CCCCC3)C=CC1=N2 (stereo not drawn) | inactive: 0% |  |
| c1cc2cn[nH]c2cc1NC1CCCCCC1 |  | inconclusive [inhibitor, partial curve] |
| O=C(CSc1nc2nc(-c3cccs3)cc(C(F)(F)F)c2c(=O)[nH]1)NCc1ccco1 |  | inconclusive [inhibitor, partial curve] |
| O=C(NCCc1ccc(Cl)cc1)c1cnc2sc(N3CCCCC3)nn2c1=O | inactive: 11.8% |  |
| Cc1ccc(NC(=O)Cn2c(=O)n(Cc3ccco3)c(=O)c3sc4ccccc4c32)cc1C | inactive: -1.55% |  |
| CC(C)(C)c1ccc(-n2ncc3c2CCCC3NC(=O)CN2CCCC2=O)cc1 (stereo not drawn) | inactive: 0.635% |  |
| Cc1nn(C(=O)c2ccc(Br)cc2)c(C)c1S(=O)(=O)N1CCOCC1 |  | inconclusive [inhibitor, partial curve] |
| CCc1ccc(-c2[nH]c3c(c2-c2sc(C)c(C(=O)OC)c2O)c(=O)[nH]c(=O)n3C)cc1 |  | inconclusive [inhibitor, single point] |
| CCN(CC)S(=O)(=O)c1cccc(-c2nnc(SCC(=O)NC3CCCC3)n2N)c1 |  | inconclusive [inhibitor, single point] |
